Laboratory results from article PMC4336329 (PLoS ONE, 2015).
Out of some 310,000 compounds screened, about 14,000 (4.5%) showed an effect of 50% or more. Effects have a minus sign here. The list shows a part of the results.

target: human ether-à-go-go-related gene (hERG) potassium channel (human, UniProt Q12809); experiment: primary screen, population patch clamp on CHO cells stably expressing hERG
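Note: peak tail current of the secondary pulse compared with the same well before compound.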

Chain of human ether-à-go-go-related gene (hERG) potassium channel (Q12809 whole entry, looked up): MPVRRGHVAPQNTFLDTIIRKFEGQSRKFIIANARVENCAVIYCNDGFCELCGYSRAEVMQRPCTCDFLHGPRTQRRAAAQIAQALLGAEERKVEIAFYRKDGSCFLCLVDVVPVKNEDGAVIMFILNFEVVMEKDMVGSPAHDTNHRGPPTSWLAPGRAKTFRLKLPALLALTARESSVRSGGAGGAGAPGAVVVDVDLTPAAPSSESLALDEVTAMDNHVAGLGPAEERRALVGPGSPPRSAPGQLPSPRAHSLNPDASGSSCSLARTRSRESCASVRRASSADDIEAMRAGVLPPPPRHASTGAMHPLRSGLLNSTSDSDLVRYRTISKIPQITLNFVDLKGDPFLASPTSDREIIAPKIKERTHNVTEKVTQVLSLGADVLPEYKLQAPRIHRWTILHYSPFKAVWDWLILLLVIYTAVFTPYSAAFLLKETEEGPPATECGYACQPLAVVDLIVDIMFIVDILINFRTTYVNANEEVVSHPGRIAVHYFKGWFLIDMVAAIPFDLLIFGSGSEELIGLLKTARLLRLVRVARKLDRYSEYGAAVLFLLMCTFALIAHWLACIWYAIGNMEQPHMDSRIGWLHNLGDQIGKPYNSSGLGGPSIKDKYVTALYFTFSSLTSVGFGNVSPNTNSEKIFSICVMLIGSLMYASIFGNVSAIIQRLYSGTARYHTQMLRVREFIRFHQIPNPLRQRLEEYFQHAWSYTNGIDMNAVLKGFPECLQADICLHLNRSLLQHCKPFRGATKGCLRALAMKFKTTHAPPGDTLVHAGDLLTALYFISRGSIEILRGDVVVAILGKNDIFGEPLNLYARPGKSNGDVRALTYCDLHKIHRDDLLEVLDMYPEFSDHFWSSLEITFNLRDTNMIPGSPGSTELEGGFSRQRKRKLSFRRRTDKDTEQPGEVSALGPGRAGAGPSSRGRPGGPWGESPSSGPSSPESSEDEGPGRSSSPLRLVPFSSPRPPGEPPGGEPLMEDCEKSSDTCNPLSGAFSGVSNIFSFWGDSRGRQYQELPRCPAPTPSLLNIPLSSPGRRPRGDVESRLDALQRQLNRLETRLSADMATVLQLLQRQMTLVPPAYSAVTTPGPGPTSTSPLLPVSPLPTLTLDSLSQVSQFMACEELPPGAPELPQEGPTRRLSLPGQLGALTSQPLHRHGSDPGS

SMILES	hERG current change (%, negative = inhibition) at 10uM [%]
COc1nc(Nc2cccc(C(F)(F)F)c2)nc(OC)n1	2.66
COc1ccc([N+](=O)[O-])cc1N(CC(=O)N1CCCC1)S(C)(=O)=O	16.8
CC(=O)Nc1ccc(/C=N/N2C(C)CCCC2C)cc1 (centres unmarked)	17.2
Cc1c(C)n(C(=O)CN2CCN(c3ccccc3)CC2)c2ccccc12	-6.16
CCOC(=O)C1CCCN(C2CC(=O)N(c3ccc(C)cc3)C2=O)C1 (centres unmarked)	6.8
O=C(O)CCC(=O)N1CCc2cc(S(=O)(=O)N3CC=C(c4ccccc4)CC3)ccc21	16.3
CCc1ccc(NC(=O)CN2C(=O)CSC2=O)cc1	-1.44
COc1ccc(N2C(=O)CC(SCc3ccc(Cl)cc3)C2=O)cc1 (centres unmarked)	5.13
Cc1cccc(NC(=O)COC(=O)Cc2c[nH]c3ccccc23)c1C	6.46
Nn1c(SCc2cccc(Cl)c2)nnc1-c1ccncc1	-2.64
CCOC(=O)c1sc(Nc2ccc(C)cc2C)nc1C	7.62
Cc1ccc(NC(=O)c2ccco2)cc1NC(=O)CSc1nnc(-c2cccs2)n1C	-38
COc1ccc(C(C)C)cc1S(=O)(=O)NCc1ccccn1	-3.11
Cn1c(O)c(C(c2ccncc2)c2c(O)n(C)c(=S)n(C)c2=O)c(=O)n(C)c1=S	21.2
Cc1[nH]c(=O)cc2ccccc12	17.8
O=C(COC(=O)c1ccco1)Nc1cccc(Br)c1	5.51
COc1cc2[nH]c(=S)n(CCN3CCCCC3C)c(=O)c2cc1OC (centres unmarked)	-9.24
COc1ccc(NC(=O)C(c2cc3c(cc2[N+](=O)[O-])OCO3)N(C)Cc2ccccc2)cc1 (centres unmarked)	2.02
CC(C(=O)Nc1cccnc1)N1C(=O)c2ccccc2C1=O (centres unmarked)	14.5
CCOC(=O)N1CCN(C(=O)CSc2ccc(-c3ccccc3OC)nn2)CC1	1.58
Cc1nc(C)n(CC(=O)N2CCCC(C(=O)c3ccc(Cl)cc3C)C2)n1 (centres unmarked)	-0.162
Cc1nnc(SCC(=O)N(Cc2ccccc2)C(C)C)n1-c1ccccc1	-5.28

SMILES	hERG current change (%, negative = inhibition) at 10uM [%]
Cc1ccc(-c2csc(NC(=O)CSc3nc(C)cs3)n2)cc1	-7.66
Fc1ccc(CN2CCN(c3ncnc4scc(-c5ccc(F)cc5)c34)CC2)cc1	5.9
COc1cc(C(=S)N2CCOCC2)cc(Br)c1OS(=O)(=O)c1ccccc1	14.5
CCCn1c(SCC(=O)NC2CCCc3ccccc32)n[nH]c1=O (centres unmarked)	56
COc1ccccc1CN1CCN(Cc2nc(-c3ccc(C)cc3)oc2C)CC1	-58.8
Cc1c(C(=O)OCC(=O)Nc2cccc(S(N)(=O)=O)c2)oc2c1ccc1ccccc12	1.32
CCOC(=O)C1CN(S(C)(=O)=O)c2cc(CC(=O)OC)ccc2O1 (centres unmarked)	1.78
CC(=O)Nc1ccc(NS(=O)(=O)c2cc(Cl)sc2Cl)cc1	2.61
COc1cccc(Cl)c1NC(=O)N1CCc2c([nH]c3ccccc23)C1C(F)(F)F (centres unmarked)	9.87
COc1ccc(C2CC(=O)N(CC(=O)NCC3CCCO3)c3ccccc3S2)cc1 (centres unmarked)	-27.1
CCOc1ccc(-n2nc3c(=S)[nH]nc(C)c3c2C)cc1	2.04
CC1Oc2ccccc2C=C1/C=N/NC(=O)c1ccccc1 (centres unmarked)	8.52
O=C(O)c1ccc2c(=O)n(-c3ccc(F)cc3)c(=S)[nH]c2c1	7.01
CNC(=S)N(Cc1ccco1)Cc1cc2cc3c(cc2[nH]c1=O)OCCO3	-18.9
COc1ccc(C2=NS(=O)(=O)N(C)C(C(=O)NCc3ccccn3)=C2)cc1OC	-4.15
Cc1ccc2nc(-c3ccc(NC(=O)COC(=O)c4ccc(Br)o4)cc3)sc2c1	-1.1
CCN=C1SC(CC(N)=O)C(=O)N1CC (centres unmarked)	24.7
COc1cc(C2NC(=O)NC3=C2C(=O)OC3)cc(OC)c1OC (centres unmarked)	22.8
CC1CCN(C(=O)c2ccc(S(=O)(=O)N(C)C)cc2)C(C)C1 (centres unmarked)	3.66
CCN(CCO)Cc1csc2ccccc12.Cl	-5.64
NC(=O)c1ccsc1NC(=O)CSc1ccccc1F	-14.8
Cc1n[nH]c(C)c1S(=O)(=O)N1CCCC(C(=O)Nc2ccc3c(c2)OCCO3)C1 (centres unmarked)	6
